According to the supplement of paper PMC9151546:
Many values rest on one well or one pass, so single values are uncertain.

Key:
[1] = system: CHO-K1; test: relative survival (nuclei to bead ratio vs DMSO control) (% of vehicle control); higher = more surviving cells
Procedure: (§1)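 Flow-cytometric in vitro micronucleus assay (Litron MicroFlow) in CHO-K1 cells in 96-well plates, 19 concentrations (4.5-200 µM, n=1 per concentration). Without S9, cells were exposed for 24 h and sampled at 48 h. With Aroclor 1254-induced rat liver S9, cells were exposed for 3-4 h and sampled at 27-28 h. Read-outs are %MN and %hypodiploid nuclei relative to nucleated events, and relative survival as the nuclei-to-bead ratio versus the 1% DMSO vehicle control (x100).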

[2] = system: CHO-K1; test: hypodiploid nuclei frequency (% of nucleated events); higher = more hypodiploid events (aneugenic)
Procedure: as §1

[3] = system: CHO-K1; test: micronucleus frequency (% of nucleated events); higher = more micronuclei (genotoxic)
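Throughout, for hypodiploid nuclei frequency (% of nucleated events): hypodiploid nuclei gated on a flow cytometer with 488 nm excitation after SYTOX Green staining, cultures at 37 °C, positive controls vinblastine without S9 and cyclophosphamide with S9.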
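Throughout, for micronucleus frequency (% of nucleated events): cells lysed with nuclei stained by SYTOX Green, then micronucleus-gated events counted against nucleated events by flow cytometry with 488 nm excitation.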
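Throughout, for relative survival (nuclei to bead ratio vs DMSO control): Lysed-cell nuclei stained with SYTOX Green and counted against counting beads by flow cytometry at 488 nm excitation, with vinblastine (no S9) and cyclophosphamide (plus S9) as positive controls.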

C1CC2OC2CC1C1CO1 (stereo unspecified) [4-Vinyl-1-cyclohexene dioxide]
Settings | hypodiploid nuclei frequency, [2] [%] | micronucleus frequency, [3] [%] | relative survival, [1]
concentration: 4.5 (µM), S9 metabolic activation: with S9, exposure time: 3-4 hours | 0.38 | 1.7 | 107
concentration: 4.5 (µM), S9 metabolic activation: without S9, exposure time: 24 hours | 1.26 | 2.18 | 111
concentration: 5.63 (µM), S9 metabolic activation: with S9, exposure time: 3-4 hours | 0.32 | 1.76 | 104
concentration: 5.63 (µM), S9 metabolic activation: without S9, exposure time: 24 hours | 1.36 | 2.56 | 115
concentration: 7.04 (µM), S9 metabolic activation: with S9, exposure time: 3-4 hours | 0.32 | 1.66 | 101
concentration: 7.04 (µM), S9 metabolic activation: without S9, exposure time: 24 hours | 1.1 | 2.5 | 108
concentration: 8.8 (µM), S9 metabolic activation: with S9, exposure time: 3-4 hours | 0.42 | 1.46 | 108
concentration: 8.8 (µM), S9 metabolic activation: without S9, exposure time: 24 hours | 1.14 | 2.4 | 108
concentration: 11 (µM), S9 metabolic activation: with S9, exposure time: 3-4 hours | 0.28 | 1.34 | 111
concentration: 11 (µM), S9 metabolic activation: without S9, exposure time: 24 hours | 1.32 | 2.74 | 113
concentration: 13.7 (µM), S9 metabolic activation: with S9, exposure time: 3-4 hours | 0.26 | 1.3 | 125
concentration: 13.7 (µM), S9 metabolic activation: without S9, exposure time: 24 hours | 1.16 | 2.42 | 115
concentration: 17.2 (µM), S9 metabolic activation: with S9, exposure time: 3-4 hours | 0.56 | 2.12 | 89.9
concentration: 17.2 (µM), S9 metabolic activation: without S9, exposure time: 24 hours | 1.38 | 2.7 | 132
concentration: 21.5 (µM), S9 metabolic activation: with S9, exposure time: 3-4 hours | 0.32 | 1.92 | 112
concentration: 21.5 (µM), S9 metabolic activation: without S9, exposure time: 24 hours | 0.84 | 2.44 | 107
concentration: 26.8 (µM), S9 metabolic activation: with S9, exposure time: 3-4 hours | 0.34 | 1.74 | 104
concentration: 26.8 (µM), S9 metabolic activation: without S9, exposure time: 24 hours | 1.32 | 2.16 | 114
concentration: 33.6 (µM), S9 metabolic activation: with S9, exposure time: 3-4 hours | 0.3 | 1.5 | 94
concentration: 33.6 (µM), S9 metabolic activation: without S9, exposure time: 24 hours | 1.36 | 1.92 | 108
concentration: 41.9 (µM), S9 metabolic activation: with S9, exposure time: 3-4 hours | 0.3 | 1.38 | 107
concentration: 41.9 (µM), S9 metabolic activation: without S9, exposure time: 24 hours | 1.62 | 2.88 | 108
concentration: 52.4 (µM), S9 metabolic activation: with S9, exposure time: 3-4 hours | 0.26 | 1.36 | 100
concentration: 52.4 (µM), S9 metabolic activation: without S9, exposure time: 24 hours | 1.62 | 2.16 | 101
concentration: 65.5 (µM), S9 metabolic activation: with S9, exposure time: 3-4 hours | 0.24 | 1.32 | 98.3
concentration: 65.5 (µM), S9 metabolic activation: without S9, exposure time: 24 hours | 1.52 | 2.38 | 109
concentration: 81.9 (µM), S9 metabolic activation: with S9, exposure time: 3-4 hours | 0.2 | 1.84 | 108
concentration: 81.9 (µM), S9 metabolic activation: without S9, exposure time: 24 hours | 1.58 | 2.74 | 113
concentration: 102 (µM), S9 metabolic activation: with S9, exposure time: 3-4 hours | 0.2 | 1.66 | 110
concentration: 102 (µM), S9 metabolic activation: without S9, exposure time: 24 hours | 2 | 2.72 | 100
concentration: 128 (µM), S9 metabolic activation: with S9, exposure time: 3-4 hours | 0.32 | 1.86 | 90.4
concentration: 128 (µM), S9 metabolic activation: without S9, exposure time: 24 hours | 1.86 | 3.7 | 98.3
concentration: 160 (µM), S9 metabolic activation: with S9, exposure time: 3-4 hours | 0.28 | 1.6 | 95.9
concentration: 160 (µM), S9 metabolic activation: without S9, exposure time: 24 hours | 2.2 | 3.46 | 101
concentration: 200 (µM), S9 metabolic activation: with S9, exposure time: 3-4 hours | 0.3 | 1.9 | 70.4
concentration: 200 (µM), S9 metabolic activation: without S9, exposure time: 24 hours | 2.3 | 5.16 | 78.6

O=c1[nH]cc(F)c(=O)[nH]1 [5-Fluorouracil]
Settings | hypodiploid nuclei frequency, [2] [%] | micronucleus frequency, [3] [%] | relative survival, [1]
concentration: 4.48 (µM), S9 metabolic activation: with S9, exposure time: 3-4 hours | 0.18 | 1.02 | 108
concentration: 4.48 (µM), S9 metabolic activation: without S9, exposure time: 24 hours | 0.6 | 1.52 | 140
concentration: 5.6 (µM), S9 metabolic activation: with S9, exposure time: 3-4 hours | 0.16 | 1 | 97.5
concentration: 5.6 (µM), S9 metabolic activation: without S9, exposure time: 24 hours | 0.5 | 1.26 | 104
concentration: 7 (µM), S9 metabolic activation: with S9, exposure time: 3-4 hours | 0.24 | 0.62 | 126
concentration: 7 (µM), S9 metabolic activation: without S9, exposure time: 24 hours | 0.4 | 1.28 | 97.9
concentration: 8.75 (µM), S9 metabolic activation: with S9, exposure time: 3-4 hours | 0.26 | 1.06 | 95.6
concentration: 8.75 (µM), S9 metabolic activation: without S9, exposure time: 24 hours | 0.4 | 1.32 | 106
concentration: 10.9 (µM), S9 metabolic activation: with S9, exposure time: 3-4 hours | 0.3 | 1.32 | 99.8
concentration: 10.9 (µM), S9 metabolic activation: without S9, exposure time: 24 hours | 0.38 | 1.24 | 124
concentration: 13.7 (µM), S9 metabolic activation: with S9, exposure time: 3-4 hours | 0.32 | 1.38 | 109
concentration: 13.7 (µM), S9 metabolic activation: without S9, exposure time: 24 hours | 0.36 | 1.62 | 94
concentration: 17.1 (µM), S9 metabolic activation: with S9, exposure time: 3-4 hours | 0.22 | 1.7 | 84.3
concentration: 17.1 (µM), S9 metabolic activation: without S9, exposure time: 24 hours | 0.54 | 1.58 | 115
concentration: 21.4 (µM), S9 metabolic activation: with S9, exposure time: 3-4 hours | 0.22 | 0.88 | 102
concentration: 21.4 (µM), S9 metabolic activation: without S9, exposure time: 24 hours | 0.48 | 1.64 | 84.8
concentration: 26.7 (µM), S9 metabolic activation: with S9, exposure time: 3-4 hours | 0.3 | 1.16 | 83.8
concentration: 26.7 (µM), S9 metabolic activation: without S9, exposure time: 24 hours | 0.5 | 0.96 | 86.1
concentration: 33.4 (µM), S9 metabolic activation: with S9, exposure time: 3-4 hours | 0.4 | 1.36 | 96.1
concentration: 33.4 (µM), S9 metabolic activation: without S9, exposure time: 24 hours | 0.64 | 0.76 | 56.7
concentration: 41.7 (µM), S9 metabolic activation: with S9, exposure time: 3-4 hours | 0.26 | 1.26 | 92
concentration: 41.7 (µM), S9 metabolic activation: without S9, exposure time: 24 hours | 0.52 | 1.68 | 80.6
concentration: 52.2 (µM), S9 metabolic activation: with S9, exposure time: 3-4 hours | 0.56 | 1.38 | 73.4
concentration: 52.2 (µM), S9 metabolic activation: without S9, exposure time: 24 hours | 0.44 | 1.34 | 95.6
concentration: 65.2 (µM), S9 metabolic activation: with S9, exposure time: 3-4 hours | 0.36 | 1.26 | 76.3
concentration: 65.2 (µM), S9 metabolic activation: without S9, exposure time: 24 hours | 0.52 | 1.42 | 81.8
concentration: 81.5 (µM), S9 metabolic activation: with S9, exposure time: 3-4 hours | 0.18 | 1.5 | 82.2
concentration: 81.5 (µM), S9 metabolic activation: without S9, exposure time: 24 hours | 0.64 | 1.32 | 81
concentration: 102 (µM), S9 metabolic activation: with S9, exposure time: 3-4 hours | 0.26 | 1.46 | 86
concentration: 102 (µM), S9 metabolic activation: without S9, exposure time: 24 hours | 0.8 | 1.92 | 91.1
concentration: 127 (µM), S9 metabolic activation: with S9, exposure time: 3-4 hours | 0.3 | 1.86 | 82.7
concentration: 127 (µM), S9 metabolic activation: without S9, exposure time: 24 hours | 0.88 | 1.76 | 68.4
concentration: 159 (µM), S9 metabolic activation: with S9, exposure time: 3-4 hours | 0.22 | 1.76 | 96.6
concentration: 159 (µM), S9 metabolic activation: without S9, exposure time: 24 hours | 0.98 | 2.3 | 91.3
concentration: 199 (µM), S9 metabolic activation: with S9, exposure time: 3-4 hours | 0.14 | 1.6 | 78.3
concentration: 199 (µM), S9 metabolic activation: without S9, exposure time: 24 hours | 0.86 | 2.82 | 89.6
